Assay results reported in PubChem BioAssay AID2676 (National Center for Advancing Translational Sciences (NCATS), 2010).
Screen size: about 370,000 compounds; about 1,100 (0.3%) were called active. Inconclusive results, whose numbers are uncertain, are shown with a selection of clear calls. Calls follow the shape of the dose curve; as a rule, active = well fitted activation curve with a large enough effect; inconclusive = small, poorly fitted or top-dose-only effect; inactive = flat fitted curve, though single readings scatter. Potencies of inconclusive entries are doubtful fits and often do not repeat.

Molecular target: Relaxin receptor 1 (Homo sapiens) (UniProt Q9HBX9)
Test: qHTS Assay for Agonists of the Relaxin Receptor RXFP1; also: nearly all actives have a fitted effect of over 60% in size
Conditions: HEK293T-RXFP1 cAMP TR-FRET, 30 min; series mostly up to 57.5 µM
Method in brief: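 cAMP rise read by TR-FRET after 30 min, 37C compound exposure (up to 58 uM) in RXFP1-transfected HEK293 cells with Ro 20174 present. EC50 from Hill-equation fits, with 29 nM porcine relaxin as 100% and buffer as basal.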
Potency is read from the fitted curve at half-maximal effect; tags tell the direction and shape of the fitted curve.

Chain of UniProt Q9HBX9 (Q9HBX9 whole entry, looked up): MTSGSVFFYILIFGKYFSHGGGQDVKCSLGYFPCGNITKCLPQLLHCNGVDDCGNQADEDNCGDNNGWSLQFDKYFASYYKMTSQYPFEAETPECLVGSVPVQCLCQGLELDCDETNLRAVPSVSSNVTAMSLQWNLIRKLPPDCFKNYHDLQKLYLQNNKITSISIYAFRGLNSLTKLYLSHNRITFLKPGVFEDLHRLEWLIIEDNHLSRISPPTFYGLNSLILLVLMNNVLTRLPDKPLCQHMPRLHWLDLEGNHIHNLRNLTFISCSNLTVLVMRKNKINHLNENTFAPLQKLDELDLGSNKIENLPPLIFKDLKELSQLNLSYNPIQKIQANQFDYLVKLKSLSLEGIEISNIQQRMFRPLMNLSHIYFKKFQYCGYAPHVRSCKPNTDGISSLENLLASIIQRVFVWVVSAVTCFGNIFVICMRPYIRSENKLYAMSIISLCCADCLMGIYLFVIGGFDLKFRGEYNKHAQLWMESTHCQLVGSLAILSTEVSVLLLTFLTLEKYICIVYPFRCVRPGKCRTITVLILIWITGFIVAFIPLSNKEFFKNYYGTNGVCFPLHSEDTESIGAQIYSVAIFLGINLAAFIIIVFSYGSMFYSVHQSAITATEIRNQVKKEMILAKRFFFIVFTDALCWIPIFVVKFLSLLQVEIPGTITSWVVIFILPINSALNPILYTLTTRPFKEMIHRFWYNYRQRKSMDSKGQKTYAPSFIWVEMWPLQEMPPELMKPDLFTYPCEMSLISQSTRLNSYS

Potency, inactive:
Cc1ccc(C(=O)CSc2nnc(CNc3ccc(F)cc3)o2)cc1
CCC(=O)N1CCc2cc(S(=O)(=O)CCC(=O)N3CCN(c4cccc(C)c4)C(C)C3)ccc21 (stereo unspecified)
Cc1ccc(-n2sc3ccccc3c2=O)cc1S(=O)(=O)N1CCCCC1
CCOC(=O)c1nnn(-c2nonc2N)c1-c1ccc(OCC)cc1
CN(C)c1ccc(/C=C2\SC(=S)N(Nc3ncc(C(F)(F)F)cc3Cl)C2=O)cc1
O=S(=O)(NCCc1csc2nc(-c3ccc(F)cc3)nn12)c1ccc(Oc2ccccc2)cc1
CCOc1ccc2c3c(c(=O)oc2c1OCC)CCCC3
Cc1cccc(CNC(=O)C2CCN(S(=O)(=O)c3ccc4c(c3)CCCN4C(=O)C3CCC3)CC2)c1
CC(C)CN(C(=O)CN1C(=O)NC2(CCc3ccccc32)C1=O)C1CCS(=O)(=O)C1 (stereo unspecified)
C/C(=N/NC(=O)c1cccs1)c1ccco1
O=C(CCc1nc(-c2ccccc2)c(-c2ccccc2)o1)OCc1ccc(Br)cc1
Cc1ccc(Nc2nnc(-c3ccc(C)c(S(N)(=O)=O)c3)c3ccccc23)cc1
O=C(NCCCN1CCN(c2ccccc2F)CC1)c1nnc(Cc2ccc(Cl)cc2Cl)o1
Cc1cccc(-n2nnnc2S(C)(=O)=O)c1
CCN(CC)CC(O)COc1ccc2c(c1)OCO2 (stereo unspecified)
CCOC(=O)N1CCN(c2ncnc3c2oc2nc(C)c4c(c23)CC(C)(C)OC4)CC1
O=C(CN(C(=O)CNC(=O)c1cccs1)c1ccc(F)cc1)NC1CCCCC1

Potency, active:
COc1ccc(C(=O)Nc2nc3n(n2)C(c2ccc(Cl)cc2)C=C(c2ccccc2)N3)cc1OC (stereo unspecified) 20 µM
CSc1nc(SCC(=O)O)c2sc3nc(-c4ccccc4)c4c(c3c2n1)CCC4 28.2 µM

Potency, inconclusive:
CCCCn1c(-c2ccsc2)nc2c1c(=O)[nH]c(=O)n2CCC 39.8 µM [activator, single point]
CCCCNC(=O)c1ccc2c(=O)n(-c3ccccc3)c(=O)[nH]c2c1 28.2 µM [activator, single point]
CCOc1ccc(/C(O)=C2/C(=O)C(=O)N(CCCN3CCOCC3)C2c2ccc(F)cc2)cc1C (stereo unspecified) 14.1 µM [activator, partial curve]
Cc1ccc2c(Cl)c(C(=O)Nc3ccc4c(c3)OCO4)sc2c1 20 µM [activator, partial curve]
O=C(Nc1cccnc1Cl)c1cc(-c2ccc(Cl)cc2)on1 25.1 µM [activator, single point]
CCOc1ccccc1-c1nc(C(N)=O)c2[nH]c(=O)n(-c3ccccc3)c2n1 39.8 µM [activator, single point]
COc1ccc(C2CC(=O)Nc3c2c(=O)nc2c(C)cccn32)cc1 (stereo unspecified) 25.1 µM [activator, partial curve]
COCCn1c(=NC(=O)CCS(=O)(=O)c2ccccc2)sc2c(OC)ccc(OC)c21 28.2 µM [activator, single point]
Cn1c(N)c(C(=O)CSc2nc3ccccc3[nH]2)c(=O)n(C)c1=O 14.1 µM [activator, partial curve]
CC1(C)Cc2c(sc3c2c(N)nc(=S)n3Cc2ccccc2)CO1 28.2 µM [activator, single point]
Cc1ccc2[nH]c(CSc3nnc(NC(=O)COc4ccccc4F)s3)cc(=O)c2c1 39.8 µM [activator, single point]
Cc1ccccc1NC(=O)Cn1c(=O)n(Cc2ccc3c(c2)OCO3)c(=O)c2oc3ccccc3c21 20 µM [activator, partial curve]
Nc1c(C(=O)N/N=C/c2ccc([N+](=O)[O-])cc2)cnn1-c1ccccc1 17.8 µM [activator, partial curve]
CCC(Sc1ccc2nnc(-c3ccc(F)cc3)n2n1)C(=O)O (stereo unspecified) 39.8 µM [activator, single point]
CCOC(=O)C1=C(CN2CCOCC2)NC(=O)NC1c1cccc([N+](=O)[O-])c1 (stereo unspecified) 25.1 µM [activator, partial curve]
Cn1cc(CCCC(=O)NCc2ccc(F)cc2)c2ccccc21 20 µM [activator, single point]
O=C(CCC(=O)N1CCOc2ccccc21)NCc1cccs1 39.8 µM [activator, single point]
O=c1[nH]c(/C=C/c2ccc(Br)cc2)nc2ccccc12 39.8 µM [activator, single point]
CCC(C)NC(=O)Cn1c(=O)n(-c2cc(OC)cc(OC)c2)c(=O)c2ccccc21 (stereo unspecified) 31.6 µM [activator, single point]
CCOc1ccc2nc3c(cc2c1)CN(CCOC)C(=NC)S3 25.1 µM [activator, single point]
Cc1cc(C)cc(NC(=O)Cn2c(=O)n(Cc3ccc4c(c3)OCO4)c(=O)c3oc4ccccc4c32)c1 31.6 µM [activator, single point]
O=C(CCCCCn1c(=S)[nH]c2cc3c(cc2c1=O)OCO3)N1CCN(c2ccccc2)CC1 31.6 µM [activator, single point]
CCOC(=O)Cn1c(=NC(=O)CSC(C)=O)sc2cc(F)ccc21 39.8 µM [activator, single point]
N#Cc1c(N2CCSCC2)nsc1-c1ccccc1Cl 20 µM [activator, partial curve]
CCOc1ccc(-c2nnc(SCC(=O)Nc3cc(C)ccc3OC)o2)cc1 31.6 µM [activator, partial curve]
Cc1ccc(CCNC(=O)CSCc2nc(-c3ccc(C)cc3)oc2C)cc1 39.8 µM [activator, single point]
CCS(=O)(=O)c1cccc(C(=O)Nc2ccc(-c3nc4ccccc4s3)c(O)c2)c1 39.8 µM [activator, single point]
COc1ccc(Cc2nc3c4cnn(-c5cccc(F)c5)c4ncn3n2)cc1 39.8 µM [activator, single point]
CCOc1ccccc1CNC(=O)C1CCN(c2nc3ccccc3nc2C(F)(F)F)CC1 12.6 µM [activator, partial curve]
Cc1ccc(S(=O)(=O)c2nnn3c2nc(N2CCOCC2)c2sccc23)cc1C 28.2 µM [activator, partial curve]
Cc1ccc(NC(=O)C2CCN(c3nnc(C)c4c(C)n(-c5ccccc5)nc34)CC2)c(Cl)c1 35.5 µM [activator, single point]
O=C(Nc1cccc(F)c1)c1c(O)c2cccc3c2n(c1=O)CCC3 39.8 µM [activator, single point]
Cc1cccnc1NC(=O)Cn1nc([N+](=O)[O-])cc1C 22.4 µM [activator, partial curve]
Nc1cc(Cl)ccc1C(=O)OCC(=O)NC1CCCCC1 39.8 µM [activator, single point]
Cn1c(=O)n(C)c2cc(/C=N/NC(=O)c3cc4cc(Br)ccc4o3)ccc21 35.5 µM [activator, single point]
COc1cccc(C(=O)Nc2ccc3oc(-c4cccc5c(Br)cccc45)nc3c2)c1 15.8 µM [activator, partial curve]
COc1cccc(N2CC(O)=C(c3nc4ccccc4s3)C2=N)c1 31.6 µM [activator, single point]
Cn1c(N)c(C(=O)CSc2nnc(NC3CCCCC3)s2)c(=O)n(C)c1=O 15.8 µM [activator, partial curve]
CCOC(=O)c1ccc(NC(=O)Cn2cc(C(=O)c3ccc(Cl)cc3)c(=O)c3ccc(C)nc32)cc1 31.6 µM [activator, single point]
Cc1cccc(-c2nc(Cn3c(SCc4cccc(C(F)(F)F)c4)nc4ccncc43)c(C)o2)c1 39.8 µM [activator, single point]
O=C(Nc1nc(-c2ccc(F)c(F)c2)cs1)c1ccc(OCC2CCCO2)cc1 (stereo unspecified) 39.8 µM [activator, single point]
CCCCN(C)CCNC(=O)c1nn(-c2ccc(OC)cc2)c(=O)c2c1c1ccccc1n2C 31.6 µM [activator, single point]
COc1ccc(-c2cc(C(=O)Nc3cccc(C(C)=O)c3)no2)cc1 28.2 µM [activator, single point]
CC(C(=O)Nc1cccnc1)n1cc([N+](=O)[O-])cn1 (stereo unspecified) 28.2 µM [activator, partial curve]
FC(F)(F)c1cc(-c2cccs2)nc2cc(-c3cccs3)nn12 39.8 µM [activator, single point]
Cc1ccc(Cl)cc1NC(=O)CSc1nc(C)c(C)c(C)c1C#N 39.8 µM [activator, single point]
CCCN(CCC)S(=O)(=O)c1cc(CN2C(=O)c3cccnc3C2=O)ccc1OC 17.8 µM [activator, partial curve]
